# Measured values reported in ChEMBL document CHEMBL1157539, “Thousands of chemical starting points for antimalarial lead identification” (Nature, 2010).
# Over roughly 13,000 compounds, “IFI” has its median near 4; the highest 2% begin near 17. This is one part of the list.
# Assay: GSK_TCMDC: Inhibition Frequency Index (IFI). The number of non-kinase HTS assays where a compound showed > 50 % inhibition, expressed as a percentage of the number of such assays in which the compound was tested (-0 is zero)
# Assay type: functional
row,SMILES,IFI
1,Cc1cc(N(C)C)nc(Nc2ccc(NC(=O)c3ccccc3Cl)cc2)n1,2.7%
2,CNc1nc(Nc2ccccc2C)nc2ccccc12,2.21%
3,N#Cc1cncc(-c2nc3c(N4CCC(N5CCCC5)CC4)cccc3n2CCNCc2ccccc2)c1,-0%
4,Brc1ccc(Nc2nc3ccccc3nc2Nc2ccc(Br)cc2)cc1,8.57%
5,COc1cc2nc(N(C)C)nc(Nc3ccc(OCc4ccccc4)cc3)c2cc1OC,6.72%
6,CN(CCCCCNC(=O)/C=C/c1ccc(Cl)c(Cl)c1)CCCCc1c[nH]c2ccccc12,6.11%
7,COc1ccc2ncc(F)c(CCN3CCC(CNCc4cccc5c4OCO5)CC3)c2n1,6.67%
8,O=C(Cn1c(CCc2cccc(F)c2F)nc(=O)c2ccccc21)N(Cc1ccc(-c2ccc(C(F)(F)F)cc2)cc1)C1CCN(C2CCSCC2)CC1,8.24%
9,Cc1cccc2nc(-c3ccc(-c4ccc(CNCCN5CCNCC5)cc4)s3)[nH]c12,5%
10,COc1ccc(-c2cnc3[nH]cc(-c4ccc(C(=O)O)cc4)c3c2)cn1,6.36%
11,CCCSc1nc2c(c(=O)n1CCc1ccccc1)C1(CCCC1)Cc1ccccc1-2,-0%
12,CCc1cccc2c(C#N)cn(CC(=O)Nc3ccc(OC)cc3)c12,0.98%
13,CC(=O)Nc1ccc(CN2CCC(NC(=O)c3ccc(-c4cccc(Cl)c4)s3)CC2)cc1,10.7%
14,COc1ccc(-c2ccccc2CNc2nc(NCCc3ccc(O)cc3)nc(N3CCNCC3)n2)cc1,13.4%
15,COc1cc(Cc2cnc(N)nc2N)cc(OCCCCC#N)c1OC,0.71%
16,COc1cc(NC(=O)c2ccc(-c3ccccc3)cc2)ccc1OCCCN1CCC(c2ccccc2)CC1,2.21%
17,O=C(Nc1cccc(N2CCC(NCc3cnn(-c4cccc(F)c4)c3)CC2)c1)c1ccncc1,-0%
18,FC(F)(F)c1cccc(CNCCCCCNCc2ccc(Cl)cc2)c1,1.42%
19,COc1cc(Cc2cnc(N)nc2N)ccc1OCC(=O)Nc1ccc(C)cc1,1.83%
20,O=C(Nc1ccsc1)Nc1cccc(-c2cccc(-c3nc4cc(F)ccc4[nH]3)c2)c1,4.04%

row,SMILES,IFI
1,CN1CCN(Cc2cc3cc(NC(=O)/C=C/c4cccc(Cl)c4)ccc3s2)CC1,11.2%
2,COC(=O)c1cccc(CNCc2cccc(-c3cccc(-c4nc5cccc(C)c5[nH]4)c3)c2)c1,4.9%
3,Cc1c(C)n(C2CCCC2)c2ncnc(OC3CCN(CC(=O)NCC4CC4)CC3)c12,8.7%
4,COc1ccc(-c2cc(-c3nc4cc(C(=O)N5CCOCC5)ccc4[nH]3)c(=O)n(C)c2)cc1OC,-0%
5,CCOC(=O)c1ccc(NC(=O)Nc2cccc(-c3cccc(-c4nc5cc(F)ccc5[nH]4)c3)c2)cc1,10.9%
6,O=C(N[C@@H](CC1CCCCC1)C(=O)NCCN1CCCC1)c1ccc(O)c(-c2ccc(Cl)c(Cl)c2)c1,4.29%
7,Cc1ccc(CCOCCCCCNCC(O)c2cc(Cl)c(N)c(Cl)c2)cc1 (stereo not drawn),1.48%
8,FC(F)(F)CNc1nc(Nc2ccc3ncccc3c2)nc2[nH]ccc12,-0%
9,COc1cc(NC(=O)/C=C/c2ccccc2OC(F)(F)F)cc(OCCN2CCCCC2)c1,3.65%
10,O=C(Nc1ccc(-c2nc3ccccc3[nH]2)cc1)c1cccc(S(=O)(=O)N2CCCC2)c1,2.86%
11,CCOc1ccc2nc(NC(=O)c3csnn3)sc2c1,1.56%
12,O=C(Nc1cccc(CN2CCCN(Cc3cccc(O)c3)CC2)c1)c1ccc(Cl)c(Cl)c1,5.37%
13,CN(Cc1cccc(C#N)c1)C1CCN(c2cc(NC(=O)c3ccc(F)cc3)ccn2)CC1,-0%
14,Cc1ccc(F)c(NC(=O)c2c(-c3c(F)cccc3Cl)noc2C)c1,2.04%
15,Cn1cncc1C(=O)Nc1cccc(-c2cccc(-c3nc4cc(C(F)(F)F)ccc4[nH]3)c2)c1,3.6%
16,O=C(/C=C/c1ccc(Cl)c(Cl)c1)NCCCCCCN1CCN(C(=O)Nc2ccc(Cl)c(Cl)c2)CC1,5.65%
17,O=C(CCCCCNC(=O)c1ccc(O)c(-c2ccc(Cl)c(Cl)c2)c1)NC1CCCc2ccccc21 (stereo not drawn),0.74%
18,CCS(=O)(=O)c1ccc(/C(=N/OC)c2ccc[nH]2)cc1,0%
19,Fc1ccc(-c2oc(C3CCN(CCc4ccc(-c5noc(=S)[nH]5)cc4)CC3)nc2COCC(F)(F)F)cc1,2.86%
20,Cc1ccc(C(=O)Nc2ccc(Cl)c(N3CCN(CCc4ccccc4)CC3)c2)cc1,2.44%

row,SMILES,IFI
1,Cc1cc(CNCCCCCNCc2cccc([N+](=O)[O-])c2)ccc1O,0%
2,Cc1cccc2nc(-c3cccc(-c4cccc(NC(=O)CNC(=O)c5ccc(O)cc5)c4)c3)[nH]c12,4.5%
3,CCCOc1ccccc1-c1nc2[nH]c3c(c2c(=O)[nH]1)CCN(C)C3,1.77%
4,C=CCc1cccc(OC)c1OCCCON1C(=N)N=C(N)NC1(C)C,4.48%
5,O=C(Nc1ccc(-c2ccccc2)c(OCCN2CCNCC2)c1)c1ccc(-c2ccc(Cl)cc2)cc1,9.09%
6,COc1ccc(-c2cnc3ccc(NCc4ccc(S(N)(=O)=O)cc4)nn23)cn1,0.76%
7,O=C(NC1CCN(CC2(c3ccc(Cl)cc3)CCCCC2)CC1)c1cc[nH]n1,7.14%
8,CSc1ccc(NC(=O)Nc2cc(C)nc3ccccc23)cc1,10.1%
9,CCN(CC)CCCCNc1cc(-c2[nH]c(-c3c(Cl)cccc3Cl)nc2-c2ccc3cc(OC)ccc3c2)ccn1,7.8%
10,CCN(CC)CCn1c(=N)n(CC(=O)c2ccc(-c3ccccc3)cc2)c2ccccc21,7.19%
11,CN(c1ccc2c(c1)nc(NCc1ccc(F)cc1)n2C)c1ccnc(Nc2ccc(CS(C)(=O)=O)cc2)n1,9.29%
12,CN(C(=O)C(C)(C)Oc1ccc(Cl)cc1)C1CCN(CCCCCNC(=O)/C=C/c2ccc(Cl)c(Cl)c2)CC1,16%
13,COc1ccc(-c2nonc2NC(=O)c2cccc(C)c2)cc1OC,2.06%
14,O=c1cc(NCCCNCc2cc(Br)cs2)[nH]c2ccccc12,-0%
15,CS(=O)(=O)c1cccc(-c2cnc3[nH]cc(-c4ccc(C(=O)O)cc4)c3c2)c1,2.97%
16,CN1CCN(c2ccnc3cc4ccccc4cc23)CC1,-0%
17,CCOC(=O)c1[nH]c2cc(Cl)cc(Cl)c2c1/C=C/C(=O)Nc1ccc(-c2cnc(NC(C)=O)[nH]2)cc1,2.4%
18,CN(CCCN(C)c1cc(NC(=O)c2ccc(F)cc2)ccn1)Cc1cccc(O)c1,5.26%
